Assay results: article PMC4336329 (PLoS ONE, 2015)
Out of some 310,000 compounds screened, about 2,200 (0.71%) showed an effect of 50% or more. Effects have a minus sign here. This is one part of the list.

Target: human ether-à-go-go-related gene (hERG) potassium channel (human, UniProt Q12809)
Assay: primary screen, population patch clamp on CHO cells stably expressing hERG

human ether-à-go-go-related gene (hERG) potassium channel, sequence (Q12809 whole entry, looked up): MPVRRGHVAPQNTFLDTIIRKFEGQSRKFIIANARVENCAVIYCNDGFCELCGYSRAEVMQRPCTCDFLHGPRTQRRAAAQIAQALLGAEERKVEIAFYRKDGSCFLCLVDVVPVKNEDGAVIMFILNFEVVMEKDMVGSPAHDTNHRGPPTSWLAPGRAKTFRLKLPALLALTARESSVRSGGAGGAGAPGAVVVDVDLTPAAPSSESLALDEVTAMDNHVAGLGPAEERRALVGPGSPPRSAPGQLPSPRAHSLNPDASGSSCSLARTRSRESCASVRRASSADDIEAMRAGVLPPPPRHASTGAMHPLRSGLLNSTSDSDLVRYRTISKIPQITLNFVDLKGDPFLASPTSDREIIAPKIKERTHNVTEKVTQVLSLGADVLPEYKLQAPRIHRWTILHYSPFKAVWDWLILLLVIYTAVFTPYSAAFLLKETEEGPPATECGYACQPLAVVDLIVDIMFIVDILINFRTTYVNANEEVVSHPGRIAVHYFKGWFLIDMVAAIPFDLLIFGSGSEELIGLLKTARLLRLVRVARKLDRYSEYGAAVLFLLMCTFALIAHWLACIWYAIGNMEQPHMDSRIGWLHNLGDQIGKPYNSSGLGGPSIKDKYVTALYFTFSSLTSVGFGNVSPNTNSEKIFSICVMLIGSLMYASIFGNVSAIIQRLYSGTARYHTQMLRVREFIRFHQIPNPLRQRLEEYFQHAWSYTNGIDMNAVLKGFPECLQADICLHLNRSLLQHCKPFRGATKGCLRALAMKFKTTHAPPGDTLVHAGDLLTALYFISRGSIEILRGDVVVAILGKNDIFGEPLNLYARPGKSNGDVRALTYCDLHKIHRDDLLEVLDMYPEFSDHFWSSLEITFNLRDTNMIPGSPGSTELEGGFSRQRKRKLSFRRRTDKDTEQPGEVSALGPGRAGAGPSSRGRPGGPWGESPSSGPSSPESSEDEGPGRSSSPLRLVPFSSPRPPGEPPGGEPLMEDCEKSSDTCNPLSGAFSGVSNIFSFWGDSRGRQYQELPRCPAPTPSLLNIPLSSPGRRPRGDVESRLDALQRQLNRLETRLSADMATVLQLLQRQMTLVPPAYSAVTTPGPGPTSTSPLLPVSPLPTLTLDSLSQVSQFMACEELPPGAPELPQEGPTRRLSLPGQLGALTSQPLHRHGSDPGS

Structure (SMILES) | hERG current change (%, negative = inhibition) at 1uM [%]
Cc1nc2[nH]c(=O)c3c(n2n1)NC1=C(C(=O)CC(C)(C)C1)C3c1ccc(F)cc1 (stereo not shown) | 11.6
CCCc1cc(C(=O)Nc2sc3c(c2C#N)CCC3)no1 | 16.8
Cn1nc(C(C)(C)C)c([N+](=O)[O-])c1C(=O)Nc1ccccc1 | 4.24
COc1ccc(N2CC(C(=O)N[C@H](C(=O)NC3CCCCC3)C(C)C)CC2=O)cc1 (stereo partly shown) | 10.7
CCOc1ccc(NC(=O)C2CCC(CNc3c(N4CCCCC4)c(=O)c3=O)CC2)cc1 (stereo not shown) | 20.9
CCOc1ccc(-c2cn(S(=O)(=O)c3cccc4nsnc34)nc2N)cc1 | 7.97
COc1ccc(C)cc1S(=O)(=O)N(C)CC(=O)N1CCCCCC1 | 18.4
COC(=O)C1=C(C)NC(=O)CC1c1cc2c(cc1Br)OCO2 (stereo not shown) | 2.1
NS(=O)(=O)c1ccc(N2C(=O)C3CC=CCC3C2=O)cc1 (stereo not shown) | 9.34
CCN(CC(=O)N1CCOCC1)S(=O)(=O)c1ccccc1 | 12.4
CCCOc1cccc(C(=O)N(Cc2cccs2)C2CCS(=O)(=O)C2)c1 (stereo not shown) | -4.8
Cc1cccc(N2CCN(C(c3cccs3)c3nnnn3C(C)(C)C)CC2)c1C (stereo not shown) | 1.13
COc1ccccc1NC(=S)NC(NC(=O)c1ccco1)C(Cl)(Cl)Cl (stereo not shown) | 4.44
CCCC(=O)Nc1c(-c2cccc(OC)c2)c(=O)c2ccccc2n1C | 9.61
O=C(N/N=C/c1cccnc1)NC12CC3CC(CC(C3)C1)C2 | 5.79
O=C(Cn1nnc(-c2cccs2)n1)NCc1cccs1 | 5.95
CC1(c2ccc3c(c2)OCCCO3)NC(=O)N(CC(=O)NCCc2ccccc2)C1=O (stereo not shown) | 4.8
COc1cc(C#N)c(NC(=O)CN2CCC(C(N)=O)CC2)cc1OC | 8.57
COc1cccc(COC(=O)c2cc(=O)[nH]c3ccc(S(=O)(=O)N4CCOCC4)cc23)c1OC | -0.935
COc1ccc(CNC(=O)CN(C(=O)CCC(=O)Nc2nccs2)c2ccccc2C)cc1 | 2.27
CCOC(=O)c1cccnc1SCC(=O)N(C)c1ccccc1 | 4.5
Cc1cc(C(=O)N/N=C2\CCCC(=O)C2)c(C)n1-c1ccccc1 | 8.28
CCOc1ccccc1N(CC(=O)NC1CCCCC1)C(=O)c1nsc(Cl)c1Cl | 8.91

Structure (SMILES) | hERG current change (%, negative = inhibition) at 1uM [%]
Cc1ccc(C(=O)OCc2nnc(-c3ccccc3)o2)s1 | 13.6
O=C(Cn1cccc1C(=O)c1ccccc1)NCc1cccc(Cl)c1 | 10.4
CCOc1ccc(/C=N/Nc2nc(C)cs2)c(O)c1 | 24.1
CCc1nnc(NC(=O)Cc2c[nH]c3ccccc23)s1 | 9.81
CC1=NN(c2ccc(Cl)cc2)C(=O)C1 | 4.8
CCOc1ccc(N2CC(=O)Nc3ccccc3NCC2=O)cc1 | 2.33
O=C(NCc1ccncc1)C1CCCCC1 | 2.06
O=C(CSc1nnc(-c2ccncc2)n1CC1CCCO1)NCc1ccccc1 (stereo not shown) | 6.3
COC(=O)c1ccc(NC(=S)N2CCN(Cc3cccc(C)c3)CC2)cc1 | -0.74
Nc1c(Cl)ncnc1N/N=C/c1ccccn1 | -3.65
CNC(=S)N/N=C1\C(=O)c2cccc3cccc1c23 | 6.49
O=C(CCCn1c(=S)[nH]c2ccccc2c1=O)N1CCOCC1 | 4.2
O=C(O)CCNC(=O)c1ccc(Br)o1 | 3.01
CSCCC(NC(=O)c1ccco1)C(=O)NCC1CCCO1 (stereo not shown) | 8.32
CC(C)n1nc(C(=O)NCc2ccc3c(c2)OCO3)c2ccccc2c1=O | 9.91
CSc1nc(-c2ccccc2)nn1C(=O)c1ccc(Cl)cc1 | 11.1
CC(=O)Nc1ccc(S(=O)(=O)N2C3CCCC2CC(NC(=O)C2CCCCC2)C3)cc1 (stereo not shown) | 11.2
Cc1ccc(CNC(=O)CNC(=O)c2ccco2)cc1 | 25.1
COc1ccc(C(=O)Nc2cccnc2)cc1S(=O)(=O)N1CCOCC1 | 10.5
Nn1c(Cc2ccccc2F)nnc1SCC(=O)N1CC(=O)Nc2ccccc21 | 4.79
O=C(c1cc([N+](=O)[O-])ccc1Cl)N1c2ccccc2Sc2ccccc21 | 3.47
CCN1CCN(c2ccc(S(=O)(=O)N3CCCCC3)cc2NC(=O)CC(NC(C)=O)c2ccccc2)CC1 (stereo not shown) | 14
Cc1ccc(NS(=O)(=O)c2ccc(C(=O)NCCCN3CCCC3=O)cc2)cc1 | 16.9

Structure (SMILES) | hERG current change (%, negative = inhibition) at 1uM [%]
COc1cc(C)c(Cl)cc1S(=O)(=O)N(C)C | 4.63
CC[n+]1cccc(-c2nc3ccccc3s2)c1.[I-] | 7.25
COc1cc2ncnc(NCc3ccccc3C)c2cc1OC | 6.56
CCCCNC(=O)CSc1nc(N)c(C(=O)Nc2ccc(OC)cc2)s1 | 11
CC(CNCC1CCCO1)COc1ccccc1.O=C(O)C(=O)O (stereo not shown) | 17.1
O=[N+]([O-])c1cccc(/C=C/c2nc3ccc([N+](=O)[O-])cc3[nH]2)c1 | 7.43
O=C1c2ccccc2C(O)N1Cc1ccco1 (stereo not shown) | 12.5
COc1ccc(/C=C(/NC(=O)c2ccc(Br)cc2)C(=O)N2CCOCC2)cc1 | 7.06
O=C1CCC/C(=N/NC(=O)c2ccc(NS(=O)(=O)c3cccs3)cc2)C1 | 9.72
C=C1CCN([C@@H](C)C(=O)NCc2ccc(OC)cc2)S(=O)(=O)c2ccccc21 | 6.8
Cc1ccc(N2C(=O)C3C(C2=O)C2C=CC3C23CC3)cc1 (stereo not shown) | -7.92
CC(C)(C)C(=O)Nc1ncccc1C(O)c1cccc(C(F)(F)F)c1 (stereo not shown) | 8.26
COc1cccc(OC)c1C(=O)NC(=S)Nc1ccc2c(c1)Cc1ccccc1-2 | 2.06
Cc1noc(C)c1C(=O)N1CCN(S(=O)(=O)c2cccc(Cl)c2Cl)CC1 | 2.62
COc1ccc(C)cc1NC(=O)CSc1nc2scc(C)c2c(=O)[nH]1 | 15.2
CC1(C)CC(C(CC(=O)N2CCCC2)Cc2ccccc2)CCO1 (stereo not shown) | -2.4
CCC(C(=O)Nc1c[nH]c(=O)[nH]c1=O)c1ccccc1 (stereo not shown) | 13.7
CCC(=O)NC(=S)NNC(=O)c1ccc(NC(=O)c2ccccc2)cc1 | -0.478
CS(=O)(=O)c1sc2nc(-c3ccccc3)cc(-c3ccccc3)c2c1N | 25
Cc1cc2c(cc1S(=O)(=O)CCC(=O)NC1CCC(C)CC1)OCC(=O)N2 (stereo not shown) | -6.33
CCCCCn1c(=O)[nH]c2cc(C(=O)NCCN3CCCCC3C)ccc2c1=O (stereo not shown) | 8.52
CCCCn1c(N)c(N(CCOC)C(=O)c2ccc(Cl)c(S(=O)(=O)N3CCCCC3)c2)c(=O)[nH]c1=O | 15.5
O=C(COC(=O)Cc1ccc(Br)cc1)NC1CC1 | -5.85

Structure (SMILES) | hERG current change (%, negative = inhibition) at 1uM [%]
CCCOc1ccc(-c2nc(C#N)c(NCC3CCCO3)o2)cc1 (stereo not shown) | -7.89
O=C(N/C(=C/C=C/c1ccccc1)C(=O)N1CCOCC1)c1ccccc1Cl | 0.947
COc1cc(C(=O)N/N=C(\C)c2ccccn2)cc(OC)c1OC | 12
CCOC(=O)c1c(NC(=O)CNC2CCCc3ccccc32)sc(C(N)=O)c1C (stereo not shown) | 14.1
O=C(O)Cc1ccc(Oc2ncc(C(F)(F)F)cc2Cl)cc1 | 11.5
COC(=O)c1ccc(C)c(NC(=O)CCNC(=O)c2ccc([N+](=O)[O-])cc2)c1 | -1.25
CCOC(=O)N1CCN(C(=O)COc2ccc([N+](=O)[O-])cc2)CC1 | -7.49
Cc1sccc1/C=N/NC(=O)c1ccco1 | 10.4
CN(Cc1ccc(F)cc1)C(=O)COc1ccc2ccccc2c1 | 8.89
COc1cc(CNCCO)ccc1OC1CCCC1.Cl | 1.21
COC(=O)C(Cc1ccc(O)cc1)NC(=O)C1CCN(S(=O)(=O)c2ccc(C)cc2)CC1 (stereo not shown) | 11.4
Cc1ccc(N)cc1N | 11.8
COc1cc(/C=N\NC(=O)c2ccc(=O)[nH]n2)cc(OC)c1OC | 13.7
O=C(N/N=C/c1ccnc2ccccc12)c1ccccc1O | 0.864
CCCCNS(=O)(=O)c1ccc(NS(=O)(=O)c2c(C)cc(C)cc2C)cc1 | 1.22
FC(F)Oc1ccc(N=C2SCC3CCCCN23)cc1 (stereo not shown) | 6.94
Cn1c2ccccc2c(=O)c2c(O)cccc21 | 11.5
NC(=NCCc1c[nH]c2ccccc12)NS(=O)(=O)c1cc(F)ccc1F | 11.3
COc1ccc(Br)cc1/C=C\C(=O)NCc1cccnc1 | -0.0518
CC(C)c1cc(C(=O)Nc2cc(Br)ccc2O)no1 | 18.5
COc1ccccc1NC(=O)N1c2ccc(F)cc2CCC1C (stereo not shown) | -11.5
CCOc1ccc(S(=O)(=O)/N=C(/Nc2ccc(OC)cc2)c2ccccc2)cc1 | 15.1
